This is one part of the list.
T1: UNK ZnF1-6 (called full-length) (human, UniProt Q9C0B0 30-357)
T1 sequence: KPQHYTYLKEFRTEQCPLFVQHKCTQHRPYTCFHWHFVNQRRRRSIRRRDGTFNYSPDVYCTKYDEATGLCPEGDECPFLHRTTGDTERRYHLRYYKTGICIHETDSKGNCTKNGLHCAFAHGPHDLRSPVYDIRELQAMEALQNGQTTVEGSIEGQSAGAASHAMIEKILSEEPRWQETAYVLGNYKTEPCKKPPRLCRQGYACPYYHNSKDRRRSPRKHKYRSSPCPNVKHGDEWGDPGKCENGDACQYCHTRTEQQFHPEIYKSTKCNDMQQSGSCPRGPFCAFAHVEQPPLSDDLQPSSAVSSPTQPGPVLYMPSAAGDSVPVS

B1: ENSG00000165476:stop:overlap|stop_codon|ENSG00000165476|stop_codon|NA|stop_codon (ssRNA)
RNA: GGGAGUUCUACAGUCCGACGAUCAAGAGGUGCGGUACGGGUCACUAAAAUACAAAGUGAAGAAACGACCACAAGUGUAUUUUUAGUCAUCUACACGUCAAAUAUCCCAAGACAGAUUAUGCUAAAUACAUCGACUUCAUCUUCCAACAGAGGAUUGAGCAUCA
B2: chr3:183812448:183812549:+|3pUTR|ENSG00000163872|msi1|total|mutant (ssRNA)
RNA: GGGAGUUCUACAGUCCGACGAUCUAUUGCAGGUAUCACAGCCUAAAGAAAUUAUCUUUUUGCAAAAGAAAUAUUAAAUGAUUCCGCAGUCUCCACGUGUGUUAAUGUUUCAAACGUGUAUCAUAAUGUGUAUAAUUGUGUAACCAACAGAGGAUUGAGCAUCA
B3: chr21:36896991:36897096:-|CDS|ENSG00000159267|unk|total|mutant (ssRNA)
RNA: GGGAGUUCUACAGUCCGACGAUCCAGUGGCUUGGGAAACAUGUGGACUCCGAGGGAGAAAUAAAAUCCGGCCAGCUCUCUCUCCGAUUUGUUUCAUCCUACGUGUCUGAAGCCGAAAUAACCCCAUCUUGUAUACCUGUGGUGCAACAGAGGAUUGAGCAUCA
B4: chr4:8867047:8867692:-|three_prime_utr|ENSG00000215612|control|control|control (ssRNA)
RNA: GGGAGUUCUACAGUCCGACGAUCGACCCUGUGGACCUGUGUGGACGCGCGAUUCAGCGGCAGGCGCAGGGCUCAGGGGGCGUUAGGGAAGGGAUGGUCGCUCCUGCGGCCUCCUAGAUACCUCGGGAGCGCAGGCCGCGGCCGCAACAGAGGAUUGAGCAUCA
B5: chr1:169690664:169691783:-|three_prime_utr|ENSG00000188404|control|control|control (ssRNA)
RNA: GGGAGUUCUACAGUCCGACGAUCAGUUUUCUUGCAGAUCAAAUUUCACGUCGUCUUCUGUAUACUGUGGAGGUACACUCUUAUAGAAAGUUCAAAAAGUCUACGCUCUCCUUUCUUUCUAACUCCAGUGAAGUAAUGGGGUCCCAACAGAGGAUUGAGCAUCA
B6: chr1:40238196:40238297:+|CDS|ENSG00000117000|msi1|FALSE|unique (ssRNA)
RNA: GGGAGUUCUACAGUCCGACGAUCCGGUAUUCCCCAUUUCAGUGUCAUAUUUGCCAAAGGUCAUUUACAAGAAAAACACACCUUAGGAUUCAUUAUAAAAAUAAACAUCAAAUUGGCAGUGACAGAGCAACUCACAAACUAUUACAACAGAGGAUUGAGCAUCA
B7: chr8:17753977:17754079:-|CDS|ENSG00000129422|unk|total|mutant (ssRNA)
RNA: GGGAGUUCUACAGUCCGACGAUCAAAAAAGCAGAAAUUCUAAUUAACAAGACACAUAAGCAGCAGUUUAAUAAACUCAUUACCCGCCAGGCUGUGCAUGUUACAACUCAUUCUAAAAAUGCUUCACACAGGGUUCCAAGAACACAACAGAGGAUUGAGCAUCA
B8: chr5:181194513:181194614:-|3pUTR|ENSG00000146054|unk|total|mutant (ssRNA)
RNA: GGGAGUUCUACAGUCCGACGAUCUCUUUGAGUGACAAGCCCGGGACAACAGCCAGUGGGCAUCACGGCUCUCCAGCACUCCUCCGCCGGAGGAUACAGAGUGAUGGGUGCAUCCUGACCAAUGCGACAACCAACACGUGCUCUCAACAGAGGAUUGAGCAUCA
B9: chr20:32656575:32657945:-|three_prime_utr|ENSG00000285382|control|control|control (ssRNA)
RNA: GGGAGUUCUACAGUCCGACGAUCAACCUCCACCUCCCAGGUUCAAGGGAUUCUUCUGCCUCAGCCUCCUGAGUAACUGGGAUUAGGGGUGCCCACCACCAUGUCUGGCUAAUUUUUAUAUUUUUAGUAGAGACGGGGUUUUGCCAACAGAGGAUUGAGCAUCA
B10: chr17:35976492:35977731:-|three_prime_utr|ENSG00000275152|control|control|control (ssRNA)
RNA: GGGAGUUCUACAGUCCGACGAUCAUUAUUACAGCAAAGAAUGGUCAACCCCAGCUCCUCAACUCCCAGUGAUGACCAGGCUUUAGUGGAAGCCCUUGUUUACAGAAGAGAGGGGUAAACCUAUGAAAACAGGGGAAGCCUUAUCAACAGAGGAUUGAGCAUCA
B11: ENSG00000115380:stop:overlap|stop_codon|ENSG00000115380|stop_codon|NA|stop_codon (ssRNA)
RNA: GGGAGUUCUACAGUCCGACGAUCGGACCUUCCGCACAAGCUCUGUGUUAAGAUUGACAAUAAUAGUGGGGCCAUUUUCAUUUUAGUCUUUUCUAAGAGUCAACCACAGGCAUUUAAGUCAGCCAAAGAAUAUUGUUACCUUAACAACAGAGGAUUGAGCAUCA
B12: chr12:39553410:39553513:-|3pUTR|ENSG00000173208|unk|total|mutant (ssRNA)
RNA: GGGAGUUCUACAGUCCGACGAUCUAAGAUUCAAACUUUGAGUGACAUUCCGUCCAUUUAUGGUUGAUAUCCGGUUUAACCGCCCGAAUUCAAAUUGAUUAUUGCCCGUGGCCAACUAAACCUGUACAAAACCGCUGACAGUUUCAACAGAGGAUUGAGCAUCA
B13: chr7:20410151:20410448:+|3pUTR|ENSG00000105855|msi1|total|mutant (ssRNA)
RNA: GGGAGUUCUACAGUCCGACGAUCACCCGUGUCGUUGCCGCACUUUACUGUAAUAUAUAACUUAUUCCGAUCAGCACCGAAUGCCGAUCCUCUGAAGAGCACUGAUUACACUUUACAGGUACCUGUUAUCCCUACGCUUCCCAGCAACAGAGGAUUGAGCAUCA
B14: chr3:50258797:50258898:+|3pUTR|ENSG00000114353|msi1|total|mutant (ssRNA)
RNA: GGGAGUUCUACAGUCCGACGAUCGCACAAGAAGCGUGAGACGCCACCAUUCCUGGAAACCACAGUCCACCUGCUCAUUCUCGCCGCUUUUUAAAAAAAUGAAAGUAAAGGAAAAAAAAAAAACUGCAAAUCCCGAAAACUUUUCAACAGAGGAUUGAGCAUCA

Target: T1, UNK ZnF1-6 (called full-length)
Assay: nsRBNS (natural sequence RNA bind-n-seq); RBNS binding buffer (assumed for nsRBNS): 25 mM Tris pH 7.5, 150 mM KCl, 3 mM MgCl2, 0.01% Triton X-100, 500 ug/ml BSA, 20 U/ml SUPERase-In, 4 C; UNK is unkempt and MSI1 is Musashi-1; names of the RNAs are library labels; protein concentration not given here; high values mean tight binding

| Binder | binding signal |
| --- | --- |
| B1 | 0.648 enrichment R |
| B2 | 0.41 enrichment R |
| B3 | 0.663 enrichment R |
| B4 | 0.682 enrichment R |
| B5 | 0.51 enrichment R |
| B6 | 1.3 enrichment R |
| B7 | 0.339 enrichment R |
| B8 | 0.519 enrichment R |
| B9 | 1.28 enrichment R |
| B10 | 0.777 enrichment R |
| B11 | 0.485 enrichment R |
| B12 | 0.231 enrichment R |
| B13 | 0.518 enrichment R |
| B14 | 0.636 enrichment R |

— PMC12136788
